Laboratory results published in PubChem BioAssay (Tox21).
Inconclusive results, whose numbers are uncertain, are shown with a selection of clear calls. For some of these results: A potency beside an inconclusive call is a rough fit, not a confirmed value. Activity calls are given as the source filed them. Unless noted, calls come from the whole dose curve; as a rule, active = well fitted curve in the direction sought with a large enough effect in the repeat runs; inconclusive = weak or mixed curves; inactive = no such curve, though single readings can be large; an effect the other way counts as inactive or inconclusive.

Columns and labels:
[1] = biological target: Peroxisome proliferator-activated receptor gamma (Homo sapiens) (UniProt P37231); assay: qHTS assay to identify small molecule agonists of the peroxisome proliferator-activated receptor gamma (PPARg) signaling pathway (AID 743094; active = well fitted activation curve with a large enough effect in the signal ratio in the repeat runs, not every such curve was filed as active; inconclusive = weak or mixed curves, or effect the other way; inactive = no such curve, though single readings can be large or run the other way; the % refers to the signal ratio; for activation: % is set by controls: 0 for no effect and ±100 for the full control effect); settings: HEK293H PPARg-UAS-bla, beta-lactamase FRET ratio, 17 h; activation: at 57 µM (top of the series) unless noted
In short: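 HEK293H PPARg-bla cells, 5 h settle at 37C/5% CO2; compound (DMSO) 17 h, 37C; B/G FRET substrate 1 h RT; fluorescence intensity read-out. qHTS format.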

[2] = biological target: Peroxisome proliferator-activated receptor gamma (Homo sapiens) (UniProt P37231); assay: qHTS assay to identify small molecule antagonists of the peroxisome proliferator-activated receptor gamma (PPARg) signaling pathway (AID 743191; calls by dose curve; note: nearly all actives have a fitted effect of over 30% in size; for ratio activity, negative = inhibition: % is set by controls: 0 for no effect and ±100 for the full control effect); settings: HEK293H PPARg-UAS-bla, beta-lactamase ratio, antagonist, 17 h
In short: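 GeneBLAzer PPARg UAS-bla HEK293H cells, 5 h post-plating, exposed to compounds 17 h at 37C. LiveBLAzer B/G FRET substrate added for 1 h at room temperature; beta-lactamase reporter read by fluorescence intensity.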

[3] = qHTS assay to identify small molecule antagonists of the peroxisome proliferator-activated receptor gamma (PPARg) signaling pathway - cell viability counter screen (AID 743194); settings: PPARg-bla HEK293H viability, CellTiter-Glo luminescence, 17 h, co-treated with 50 nM rosiglitazone; activity change, negative = cytotoxicity: at 62.6 µM (top of the series) unless noted; note: nearly all actives have a fitted effect of over 55% in size; for activity change, negative = cytotoxicity: % is set by controls: 0 for no effect and ±100 for the full control effect
In short: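 Cytotoxicity counter screen in PPARg-bla HEK293H cells, same wells as reporter assay. Compounds plus 50 nM rosiglitazone (final) for 17 h at 37 C, then viability read by CellTiter-Glo luminescence.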

[4] = qHTS assay for small molecule agonists of the antioxidant response element (ARE) signaling pathway (AID 743202; active = well fitted activation curve with a large enough effect in the signal ratio in the repeat runs, not every such curve was filed as active; inconclusive = weak or mixed curves, or effect the other way; inactive = no such curve, though single readings can be large or run the other way; the % refers to the signal ratio; for activation: % is set by controls: 0 for no effect and ±100 for the full control effect); settings: HepG2 ARE-bla reporter, beta-lactamase FRET, 16 h; activation: at 73.3 µM (top of the series) unless noted
In short: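 HepG2 ARE-bla reporter line, 2,000 cells/well; 5 h preincubation 37 C/5% CO2; compound (DMSO) 16 h 37 C; B/G FRET substrate 2 h RT; fluorescence intensity.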

[5] = qHTS assay for small molecule activators of the heat shock response signaling pathway - cell viability counter screen (AID 743209); settings: HSE-bla HeLa viability, CellTiter-Glo luminescence, 5 h; activity change, negative = cytotoxicity: at 62.6 µM (top of the series) unless noted; note: nearly all actives have a fitted effect of over 50% in size
In short: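 HSE-bla HeLa; 1500 cells/well; overnight 37 C, 5% CO2; compound 5 h 37 C; LiveBLAzer B/G substrate 2.5 h RT; CellTiter-Glo 30 min RT; luminescence.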

[6] = qHTS assay for small molecule activators of the heat shock response signaling pathway (AID 743210; active = well fitted activation curve with a large enough effect in the signal ratio in the repeat runs, with a control signal flat, not every such curve was filed as active; inconclusive = weak or mixed curves; the % refers to the signal ratio); settings: HeLa HSE-bla reporter, beta-lactamase ratio, 5 h; activation: at 62.6 µM (top of the series) unless noted
In short: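 Beta-lactamase reporter read-out: FRET substrate fluorescence after 2.5 h at RT, following 5 h compound treatment at 37 C of HeLa cells carrying HSE-driven bla reporter; quantitative HTS format.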

[7] = qHTS assay to identify small molecule agonists of the peroxisome proliferator-activated receptor delta (PPARd) signaling pathway - cell viability counter screen (AID 743211); settings: PPARd-bla HEK293H viability, CellTiter-Glo luminescence, 17 h; activity change, negative = cytotoxicity: at 62.6 µM (top of the series) unless noted; note: nearly all actives have a fitted effect of over 55% in size
In short: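 Luminescent ATP viability assay (CellTiter-Glo, 30 min RT) in UAS-bla HEK293H cells carrying the PPAR delta reporter construct, 3000 cells/well, after a 17 h compound treatment at 37 C.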

[8] = biological target: Peroxisome proliferator-activated receptor delta (Homo sapiens) (UniProt Q03181); assay: qHTS assay to identify small molecule agonists of the peroxisome proliferator-activated receptor delta (PPARd) signaling pathway (AID 743212; calls by dose curve); settings: HEK293H PPARd-UAS-bla, beta-lactamase FRET ratio, 17 h; activation: at 62.6 µM (top of the series) unless noted
In short: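 Read-out: beta-lactamase FRET fluorescence after 2 h room-temperature incubation with LiveBLAzer B/G substrate. Cells were HEK293H carrying a UAS-bla reporter for PPARd, treated at 37 C with DMSO-dissolved compounds.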

[9] = qHTS assay to identify small molecule antagonists of the peroxisome proliferator-activated receptor delta (PPARd) signaling pathway - cell viability counter screen (AID 743213); settings: PPARd-bla HEK293H viability, CellTiter-Glo luminescence, 17 h; viability change, negative = cytotoxic: at 62 µM (top of the series) unless noted; note: nearly all actives have a fitted effect of over 50% in size
In short: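 Cytotoxicity counter screen: CellTiter-Glo luminescence read 30 min after addition, in the same wells as the reporter assay. There, PPARd UAS-bla HEK293H cells (3000/well) were treated 17 h at 37 C with compound and 300 nM L165041.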

[10] = biological target: Peroxisome proliferator-activated receptor delta (Homo sapiens) (UniProt Q03181); assay: qHTS assay to identify small molecule antagonists of the peroxisome proliferator-activated receptor delta (PPARd) signaling pathway (AID 743215; active = well fitted inhibition curve with a large enough effect in the signal ratio in the repeat runs, not every such curve was filed as active; inconclusive = weak or mixed curves, or effect the other way; inactive = no such curve, though single readings can be large or run the other way; the % refers to the signal ratio;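 note: cells stimulated with agonist L165041 at 300 nM final during compound exposure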); settings: HEK293H PPARd-UAS-bla, beta-lactamase FRET ratio, antagonist, 17 h; ratio activity, negative = inhibition: at 62 µM (top of the series) unless noted
In short: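 HEK293H GeneBLAzer PPARd UAS-bla reporter cells; cpd + L165041 300 nM final, 17 h 37 C; LiveBLAzer B/G FRET substrate 2 h RT; fluorescence intensity read-out. Antagonist mode.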

[11] = biological target: Bile acid receptor (Homo sapiens) (UniProt Q96RI1); assay: qHTS assay to identify small molecule antagonists of the farnesoid-X-receptor (FXR) signaling pathway (AID 743217; active = well fitted inhibition curve with a large enough effect in the signal ratio in the repeat runs, not every such curve was filed as active; inconclusive = weak or mixed curves, or effect the other way; inactive = no such curve, though single readings can be large or run the other way; the % refers to the signal ratio); settings: HEK293T FXR-UAS-bla, beta-lactamase ratio, CDCA-stimulated, 16 h; activity change, negative = inhibition: at 62.6 µM (top of the series) unless noted
In short: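 Read-out: beta-lactamase FRET fluorescence (LiveBLAzer B/G substrate, 2 h, room temperature) in GeneBLAzer FXR-UAS-bla HEK 293T cells. Compounds were co-dosed with 50 uM chenodeoxycholic acid (final) and incubated 16 h at 37 °C.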

[12] = qHTS assay to identify small molecule agonists of the farnesoid-X-receptor (FXR) signaling pathway - cell viability counter screen (AID 743218); settings: FXR-bla HEK293T viability, CellTiter-Glo luminescence, 16 h; viability change, negative = cytotoxic: at 62.6 µM (top of the series) unless noted; note: nearly all actives have a fitted effect of over 45% in size
In short: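 Luminescence from CellTiter-Glo, read after 30 min at RT, reports viability of GeneBLAzer FXR-UAS-bla HEK 293T cells treated 16 h with compounds in the wells used for the beta-lactamase reporter.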

[13] = biological target: Bile acid receptor (Homo sapiens) (UniProt Q96RI1); assay: qHTS assay to identify small molecule agonists of the farnesoid-X-receptor (FXR) signaling pathway (AID 743220; active = well fitted activation curve with a large enough effect in the signal ratio in the repeat runs, not every such curve was filed as active; inconclusive = weak or mixed curves, or effect the other way; the % refers to the signal ratio); settings: HEK293T FXR-UAS-bla, beta-lactamase FRET ratio, 16 h; activation: at 62.6 µM (top of the series) unless noted
In short: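 FXR-UAS-bla HEK 293T cells carrying a UAS-driven beta-lactamase reporter were plated for 5 h at 37C/5% CO2, then exposed to DMSO-dissolved Tox21 10K compounds for 16 h at 37C. A LiveBLAzer B/G FRET substrate was loaded for 2 h at room temperature before fluorescence reading.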

[14] = qHTS assay to identify small molecule antagonists of the farnesoid-X-receptor (FXR) signaling pathway - cell viability counter screen (AID 743221; active = well fitted cell-killing curve with a large enough effect in the repeat runs, not every such curve was filed as active; inconclusive = weak or mixed curves, or effect the other way; inactive = no such curve, though single readings can be large or run the other way; note: nearly all actives have a fitted effect of over 50% in size); settings: FXR-bla HEK293T viability, CellTiter-Glo luminescence, 16 h; activity change, negative = cytotoxicity: at 62.6 µM (top of the series) unless noted
In short: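 In GeneBLAzer FXR-UAS-bla HEK 293T cells stimulated with 50 uM chenodeoxycholic acid (final), compounds acted for 16 h at 37 C. Viability was assessed afterwards by CellTiter-Glo luminescence.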

[15] = biological target: Vitamin D3 receptor (Homo sapiens) (UniProt P11473); assay: qHTS assay to identify small molecule agonists of the vitamin D receptor (VDR) signaling pathway (AID 743222; calls by dose curve); settings: HEK293T VDR-UAS-bla, beta-lactamase FRET ratio, 16 h; activation: at 63.5 µM (top of the series) unless noted
In short: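 Beta-lactamase reporter readout (LiveBLAzer B/G FRET, 2 h RT) in VDR-bla cells after 16 h compound treatment at 37C, 5% CO2; cells pre-incubated 4 h before pin transfer of DMSO solutions.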

[16] = biological target: Vitamin D3 receptor (Homo sapiens) (UniProt P11473); assay: qHTS assay to identify small molecule antagonists of the vitamin D receptor (VDR) signaling pathway (AID 743223; active = well fitted inhibition curve with a large enough effect in the signal ratio in the repeat runs, not every such curve was filed as active; inconclusive = weak or mixed curves, or effect the other way; inactive = no such curve, though single readings can be large or run the other way; the % refers to the signal ratio); settings: VDR-UAS-bla HEK293T, beta-lactamase FRET ratio, 16 h; activity change, negative = inhibition: at 61 µM (top of the series) unless noted
In short: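 Agonist 1alpha,25-dihydroxyvitamin D3 (3 nM in well) was added with each compound to VDR-bla cells preincubated 4 h. Cells stood 16 h at 37C, then FRET substrate 2 h at room temperature; fluorescence intensity recorded.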

[17] = qHTS assay to identify small molecule agonists of the vitamin D receptor (VDR) signaling pathway - cell viability counter screen (AID 743224); settings: VDR-bla HEK293T viability, CellTiter-Glo luminescence, 16 h; activity change, negative = cytotoxicity: at 62.6 µM (top of the series); note: nearly all actives have a fitted effect of over 50% in size
In short: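 Cytotoxicity counter screen: VDR-bla cells, 16 h compound exposure at 37C, 5% CO2; CellTiter-Glo luminescence, 30 min RT, same wells as bla read.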

[18] = ratio activity, negative = inhibition: at 62.6 µM (top of the series) unless noted
Potency is the fitted concentration of half-maximal effect; tags give direction and shape of the fitted curve or compound fluorescence and quenching.

UniProt Q03181, sequence (Q03181 whole entry, looked up): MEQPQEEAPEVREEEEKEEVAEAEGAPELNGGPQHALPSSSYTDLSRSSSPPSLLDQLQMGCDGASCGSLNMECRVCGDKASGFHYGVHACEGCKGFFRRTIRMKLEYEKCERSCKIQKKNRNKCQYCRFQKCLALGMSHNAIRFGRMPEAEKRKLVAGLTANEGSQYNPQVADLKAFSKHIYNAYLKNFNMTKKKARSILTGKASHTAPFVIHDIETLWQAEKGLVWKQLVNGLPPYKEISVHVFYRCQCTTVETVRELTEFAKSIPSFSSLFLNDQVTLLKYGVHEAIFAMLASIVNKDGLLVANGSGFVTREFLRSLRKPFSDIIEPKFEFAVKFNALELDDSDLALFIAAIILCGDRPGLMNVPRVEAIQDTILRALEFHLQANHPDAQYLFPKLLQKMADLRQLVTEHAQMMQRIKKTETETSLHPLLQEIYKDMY
UniProt Q96RI1, sequence (Q96RI1 whole entry, looked up): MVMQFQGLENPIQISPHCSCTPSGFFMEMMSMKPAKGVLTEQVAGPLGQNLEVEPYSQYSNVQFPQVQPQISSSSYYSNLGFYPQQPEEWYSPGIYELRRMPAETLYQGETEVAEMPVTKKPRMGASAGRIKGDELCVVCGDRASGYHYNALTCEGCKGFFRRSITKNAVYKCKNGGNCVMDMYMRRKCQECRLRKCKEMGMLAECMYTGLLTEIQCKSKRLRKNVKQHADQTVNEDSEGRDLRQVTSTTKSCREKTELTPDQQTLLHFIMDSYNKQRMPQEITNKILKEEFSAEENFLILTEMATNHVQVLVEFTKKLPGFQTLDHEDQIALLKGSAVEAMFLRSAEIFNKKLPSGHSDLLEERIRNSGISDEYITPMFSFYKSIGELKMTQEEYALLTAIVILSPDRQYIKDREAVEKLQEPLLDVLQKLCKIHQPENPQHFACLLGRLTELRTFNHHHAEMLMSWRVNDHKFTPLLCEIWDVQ
UniProt P37231, sequence (P37231 whole entry, looked up): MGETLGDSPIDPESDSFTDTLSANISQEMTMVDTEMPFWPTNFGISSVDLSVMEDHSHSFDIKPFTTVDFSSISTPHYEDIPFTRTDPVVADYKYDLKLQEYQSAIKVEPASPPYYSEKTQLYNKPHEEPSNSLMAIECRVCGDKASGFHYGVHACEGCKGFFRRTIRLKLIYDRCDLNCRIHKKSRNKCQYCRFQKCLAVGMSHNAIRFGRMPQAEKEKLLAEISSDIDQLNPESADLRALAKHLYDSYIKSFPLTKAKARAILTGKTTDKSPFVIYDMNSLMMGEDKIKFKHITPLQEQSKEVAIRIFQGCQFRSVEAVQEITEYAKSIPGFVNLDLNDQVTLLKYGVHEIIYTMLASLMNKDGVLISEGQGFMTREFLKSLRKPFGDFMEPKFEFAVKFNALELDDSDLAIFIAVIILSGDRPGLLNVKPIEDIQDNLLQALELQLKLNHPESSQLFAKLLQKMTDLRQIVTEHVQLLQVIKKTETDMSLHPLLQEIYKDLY
UniProt P11473, sequence (P11473 whole entry, looked up): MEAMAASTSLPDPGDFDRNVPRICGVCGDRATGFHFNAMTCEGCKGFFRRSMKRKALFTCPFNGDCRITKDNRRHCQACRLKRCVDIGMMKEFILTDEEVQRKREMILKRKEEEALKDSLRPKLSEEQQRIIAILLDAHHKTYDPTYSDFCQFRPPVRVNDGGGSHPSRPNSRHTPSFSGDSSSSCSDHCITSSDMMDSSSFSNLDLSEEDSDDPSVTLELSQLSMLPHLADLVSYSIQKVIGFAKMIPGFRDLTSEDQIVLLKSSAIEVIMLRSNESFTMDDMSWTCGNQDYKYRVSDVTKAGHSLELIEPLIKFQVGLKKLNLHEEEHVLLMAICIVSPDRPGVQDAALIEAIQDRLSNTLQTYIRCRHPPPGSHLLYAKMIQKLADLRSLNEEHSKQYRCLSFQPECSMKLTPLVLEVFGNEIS

SMILES: CCCCCCCCCCCC[N+](C)(C)CCCCCCCCCCCC
- Potency [1]: inconclusive: 54.9 µM [cytotoxic, single point]
- Potency [2, 18]: inconclusive: 49 µM [cytotoxic]
- Potency [3]: active: 27.5 µM
- Potency [4]: inconclusive: 24.3 µM [falling, full curve]
- Potency [5]: active: 43.6 µM
- Potency [6]: inconclusive: 37.4 µM [cytotoxic]
- Potency [7]: active: 17.4 µM
- Potency [8]: inconclusive: 61.7 µM [single point]
- Potency [9]: active: 13.8 µM
- Potency [10]: inconclusive: 54.9 µM [cytotoxic]
- Potency [11]: active: 49 µM
- Potency [12]: active: 27.5 µM
- Potency [13]: inconclusive: 54.9 µM [cytotoxic]
- Potency [14]: inconclusive: 30.9 µM [falling, partial curve]
- Potency [15]: inconclusive: 24.5 µM [cytotoxic, partial curve]
- Potency [16]: inconclusive: 54.9 µM [cytotoxic]
- Potency [17]: active: 19.5 µM

SMILES: [Na+]
- Potency [1]: inactive
- Potency [2, 18]: inactive
- Potency [3]: inactive
- Potency [4]: inactive
- Potency [10]: inactive

SMILES: CCOC(=O)c1ccccc1C(=C1C=C(Br)C(=O)C(Br)=C1)c1cc(Br)c(O)c(Br)c1
- Potency [1]: inconclusive: 5.17 µM [fluorescent, partial curve]
- Potency [2, 18]: inconclusive: 4.11 µM [rising, partial curve]
- Potency [3]: inconclusive: 23.1 µM [cytotoxic, full curve, poor fit]
- Potency [4]: inconclusive: 57.5 µM [rising, single point]
- Potency [5]: inconclusive: 16.4 µM [cytotoxic, single point]
- Potency [6]: inconclusive: 7.31 µM
- Potency [8]: inconclusive: 18.4 µM [rising, partial curve]
- Potency [10]: inconclusive: 23.1 µM [rising, partial curve]
- Potency [11]: inconclusive: 20.6 µM [rising, full curve]
- Potency [12]: inconclusive: 46.1 µM [cytotoxic, single point]
- activation [13]: inconclusive: -6.49%
- Potency [14]: inconclusive: 16.4 µM [rising, partial curve, poor fit]
- Potency [16]: inconclusive: 41.1 µM [fluorescent]

SMILES: C[C@]12C=CC(=O)C=C1CC[C@@H]1[C@@H]2C(=O)C[C@@]2(C)[C@H]1CC[C@]2(O)C(=O)CO
- activation [1]: inconclusive: 3.42% [at 78.9 µM]
- ratio activity, negative = inhibition ([2]; at 62.6 µM (top of the series)): inconclusive: 18.2%
- ratio activity, negative = inhibition ([2]; at 81.1 µM (top of the series)): inconclusive: 2.59%
- Potency [4]: inconclusive: 61.4 µM [rising, partial curve, poor fit]
- activation [4]: inconclusive: 16.3%
- Potency [5]: inconclusive: 0.188 µM [rising, partial curve, poor fit]
- Potency [16]: inconclusive: 34.7 µM [activator, partial curve]

SMILES: O=C(O)Cc1cc(I)c(Oc2cc(I)c(O)c(I)c2)c(I)c1
- Potency [1]: inconclusive: 12.1 µM
- Potency [2, 18]: inconclusive: 2.41 µM [rising, partial curve]
- Potency [3]: active: 19.1 µM
- Potency [4]: inconclusive: 47.6 µM [rising, partial curve, poor fit]
- Potency [6]: inconclusive: 14.6 µM
- Potency [10]: inconclusive: 0.604 µM [activator, partial curve]
- Potency [12]: inconclusive: 0.0038 µM [rising, full curve, poor fit]
- Potency [14]: inconclusive: 6.78 µM [falling, partial curve, poor fit]
- Potency [15]: inconclusive: 1.52 µM [fluorescent, full curve, poor fit]
- Potency [16]: inconclusive: 21.4 µM [fluorescent, partial curve]

SMILES: CCCCCCCCOc1ccccc1C(=O)Nc1ccc(C(=O)OCC[N+](C)(CC)CC)cc1
- activation [1]: inconclusive: 11.4%
- Potency [2, 18]: inconclusive: 29.8 µM [cytotoxic, partial curve, poor fit]
- Potency [3]: inconclusive: 0.0211 µM [cytotoxic, full curve, poor fit]
- Potency [4]: inconclusive: 33.5 µM [single point]
- Potency [5]: inconclusive: 33.5 µM [cytotoxic, single point]
- Potency [6]: inconclusive: 33.5 µM [single point]
- Potency [9]: inconclusive: 23.7 µM [cytotoxic, partial curve, poor fit]
- Potency [14]: inconclusive: 26.6 µM [falling, partial curve, poor fit]
- Potency [16]: inactive

SMILES: C=CC(=O)OCCCCCCCC(C)C
- activation [1]: inconclusive: 6.22%
- ratio activity, negative = inhibition ([2]; at 62.6 µM (top of the series)): inactive: 14%
- ratio activity, negative = inhibition [2, 18]: inconclusive: -22.4%
- Potency [6]: inactive
- ratio activity, negative = inhibition [10]: inconclusive: -4.32%
- Potency [16]: inactive
